The source gives no read counts; variants with many changes may rest on few reads.
B1: LINE1-mini (parent)
chain: GGCAGAGCUCAACACAGCGUGGCAAAGUGGCUGUGGCUAGACUGCC

Variants of: B1
Experiment: self-cleavage, relative activity (ratio to wild type); higher = more cleavage; in vitro, sequencing; the parent is a self-cleaving ribozyme
Work on GCCAGAGCUCAACACAGCGUUGUAAAGUGGCUGUGGCUACACUGCC yielded a self-cleavage of 0.12. Variant GCCAGACCUCAAUACAGCGAGGCAAAGUGGCUGUGGCUAGACUGCC has a self-cleavage of 0.16. With GCCAGAACUCAAUACAGCGUGGCAAAGAGGCUGUGGCCAGGGUGCC the self-cleavage was 0.25. Work on GCCACAGCUCAACACAGCGUGGCAAAGAGGCUGUGGUUAGACUGUC yielded a self-cleavage of 0.01. For GCCAGAGCACAACACAGAGUGGCAAAGUGGCUGUGGAUAGACUGCC, the self-cleavage was 0.05. For GUCGUAGCUCAACACAGCGUGGCAAAAUGGUUGUGGCCAGACUGUC, the self-cleavage was 0.03. With GCCAGAGCUCAACAAAGCGUGGCAAAGCGGCCGUGGCUAGACUGCC the self-cleavage was 0.03. For GCCAGAGCGCAACACAGCGUGGCAAAGAGGCUGUGGCUAGACUGCC, the self-cleavage was 0.04. With GUCGGAGCUCUAAACAACCUGGAGAAGUGGCUGUGGCUAGACUGCC the self-cleavage was 0.05. For GCCAGAGCUCAACACAGCGUUGAAAAGUGGCUGUGGCUAGACUGCC, the self-cleavage was 0.19. Variant GCCAGAACUCAACACAGCGUGGCCAAGUGGCUGUGGCUAGAUUGCC has a self-cleavage of 0.2. Work on GCCAGAGCCCAGCACAGCGCGGCAAAGUGGCUGUGGCUAGACUGCC yielded a self-cleavage of 0.08. Variant GCCAGAGCUCAACAGAGCGUGGUAAAGUGGCUGUGGCUAGACUGCC has a self-cleavage of 0. Variant GCCAGAGCUCAACACAGCAUGGCAAAGUGUCUGUGGCUAGACUGGC has a self-cleavage of 0.25. GCCAGAGCUCAACACAGAGUGGCAACGUGGCUGUGGCUAGACUGCC gave a self-cleavage of 0.03. Variant GCCAGAGCUCAACACAGCCUGGCAAAUUGGCUGUGGCUAGACUGCC has a self-cleavage of 0.13. GCCAGAGCUCAACACAGCGUGGCAAAGUCACUGAGGCUAGACUGCC showed a self-cleavage of 0.33. Variant GCCAGAGCUCAACACAAUGUGGCAAAGUGGCUGUGGCUAGACAGGC has a self-cleavage of 0.04. With GCCAGAGCUCAACACAGCGCGGCCAAGUGGCUGUCGCUAGACUGCC the self-cleavage was 0.02. With GCCAGACCUGAACACAUCGUGGCAAAGUGGUUGUGGCUAGACUGCC the self-cleavage was 0.03. For GCCAGAGCUCAACAUGGCGUGGCAAAGUGGCUGUGGCUAGACUGCC, the self-cleavage was 0.04. For GCCAGAGCUCAACAGAGCGUGGCUUCAUGGCUGUGGCUAGACUGCC, the self-cleavage was 0.01. In the case of GUCCGAGCUCAACACAGCGUGGCAAAGUGCCUGUGGCUAGACUGCC, the self-cleavage is reported as 0.01. With GCCACAGCUCAACACAGUGUGGCUAAGUGGGUGUGGCUAGACUGCC the self-cleavage was 0.03. For GCCAGAGCUCAACACAGAGUGGCAAAGUGGCUGUGGCUAGACUGCU, the self-cleavage was 0.07. GCCAGAGCUCAACACAGCGAGGCAAAGUGACUGUGGCUAGACUGCA gave a self-cleavage of 0.15. GCCAGAACUCAACACUGCGUGGCAAAGUGGCUGUGGCUAGACUGCC gave a self-cleavage of 0.08. In the case of GCCAGACCUCAACACAGCGUGGCAAAGUGGUUGUGGCUAGACUGAC, the self-cleavage is reported as 0.05. Work on GCCAGAUCUUAACACACCGUGGCAAAGACGCUGUGGCUAGACUGCC yielded a self-cleavage of 0.02. For GCCAGAUCUCAACACAGCGUGGCUAAGUGGCUGUGACUAGACUGCC, the self-cleavage was 0.41. GCCAGAGCUCAACACAGCCUGGCAAAGUGUCUGUGGCUAGACUGCC showed a self-cleavage of 0.06. Variant GCCAGAGCGCAACACAGCGUGGCAAAUUGGCUGUGGCUAGACUGCC has a self-cleavage of 0.03. GCCAGAACUCAACACAGCGUGGUAAGGUGUCUGUGGCGAGACUGCC gave a self-cleavage of 0.06. Work on GCCAGAGCUCAACACAGCGUGGCAAAGGGGCUGUGGCUAGCCUGCC yielded a self-cleavage of 0.02. GCCAGAGCUCAACACAGCGUGGAAAAGGGGCUGUGGCUAGACUGCC gave a self-cleavage of 0.11. Work on GCCAGAGCUCAACACAGCUGGGCAAAAUGGCUGUGGCUAGACUGCC yielded a self-cleavage of 0.1. Work on GCCAGAGCUCAACACAGCGCGGCAAAUUGGCUGUGGUCAGACUGCC yielded a self-cleavage of 0.01. In the case of GCCAGAGCUCAACAGAGCGUGGCAAAGUGGCUGUGGCUCGACUACC, the self-cleavage is reported as 0.07. GCCAGAGCUCAACACAGCCUGGCAAAGUGGCUGUGGCUAGGCUCCC showed a self-cleavage of 0.05. Variant GCCAGAGCUCAACAUAGUGUGGCAAAGUGGCUGUGCCUAGACUGCC has a self-cleavage of 0.03. GCCAGAGCUCAACACAGCGUGGCAAAGUGGUUGUGGUUAGACUGCC gave a self-cleavage of 0.03. Variant GCCAGAGCUCAACACAGCGUGGAAAAGUGCCUGUGGCUAGACUGCC has a self-cleavage of 0.54. Variant GCCAGAGCUCAACACAGAGUGGCAAAGUGGCUGAGGCUAGACUCCC has a self-cleavage of 0.12. Variant GCCAGAGCUCAACACAGCGUGGCAAAGUGGCUCUGGCUAGCCUGCC has a self-cleavage of 0.02. In the case of GCCAGAGCUCAACACAGCGUGGCAAAGUAGCAGUGGCAAGACUGCC, the self-cleavage is reported as 0.02. GCCAGAGCUCAACACAGCGUGGCAAACUGGCUGUGGCAAGACUGCC showed a self-cleavage of 0.02. GCCAGAGCUCAACACAGCGUGGCAAACAGGCUGUGGCUAGACUGCC showed a self-cleavage of 0.09. For GCCAGAGCUCAACACAGGGUGGCAAAGUGGCUAUGGCAAGACUGCC, the self-cleavage was 0.16. In the case of GCCAAAGCUCAACACAGCGUAGCAAAGUGGAUGUGACUAGACUGAC, the self-cleavage is reported as 0.18. Variant GCCAGAGCUCAACAGUGCGUGGCAAUGUGGCUGUGGCUAGACUGCC has a self-cleavage of 0.04. With GCCAGAGCUCAACACAGCGUGUCAACGUGGCUGUUGCUAGACUGCC the self-cleavage was 0.16. GCCAGAGCUCAACACAGCCUGGCAAAGAGGCUGUGGCUAGACUGCC showed a self-cleavage of 0.05. GCCAGAGCUCAACACAGCGUGGCAAAGUGGCUGUUGCUAGACUGUC showed a self-cleavage of 0.03. In the case of GCCAGAGCUCAACACAGCGUGGCAAAGUGGCUGUGGCUAGACUGGU, the self-cleavage is reported as 0.56. GCCAGAGCUCAACAUAGCGUGGCAAAGUGGGUGCGGCUCGACUGCC gave a self-cleavage of 0.02. Work on GCCAGAGCCCAACACAGCGUGGCAAAGUGGGUGUGGCUAGACUGCC yielded a self-cleavage of 0.03.

Reference: the RNAGym collection of RNA variant scans (doi:10.7554/elife.90254)
